{"source": "patent US20150079114A1", "about": "“DR5 LIGAND DRUG CONJUGATES” (Seattle Genetics, Inc., priority 2012, published 2015)", "molecules": {"B1": {"name": "hB273-vc-MMAE: antibody drug conjugate of hB273 conjugated with mc-vc-MMAE, average drug loading about 3.5 to 4.5 (conjugate)", "heavy": "EVQLVQSGAEVKKPGASVKVSCKASGYSFIGYFMNWMKQSPGMSLEWIGRFNPYNEDTFYNQKFKGKATLTVDKSTSTAYMELSSLRSEDTAVYFCARSAYYFDSGGYFDYWGQGTLVTVSSASTKGPSVFPLAPSSKSTSGGTAALGCLVKDYFPEPVTVSWNSGALTSGVHTFPAVLQSSGLYSLSSVVTVPSSSLGTQTYICNVNHKPSNTKVDKRV[sequence of human IgG1 Fc omitted]", "light": "DIVMTQSPLSLPVTPGEPASISCRSSQSLVHSNKNTYLHWYLQKPGQSPQLLIYKVSNRFSGVPDRFSGSGSGTDFTLKISRVEAEDVGVYYCSQSTHVPWTFGPGTKVEIKRTVAAPSVFIFPPSDEQLKSGTASVVCLLNNFYPREAKVQWKVDNALQSGNSQESVTEQDSKDSTYSLSSTLTLSKADYEKHKVYACEVTHQGLSSPVTKSFNRGEC"}, "B2": {"name": "hB273: humanized anti-DR5 antibody B273, heavy chain SEQ ID NO:9 (or residues 1-451), light chain SEQ ID NO:10 (antibody)", "heavy": "EVQLVQSGAEVKKPGASVKVSCKASGYSFIGYFMNWMKQSPGMSLEWIGRFNPYNEDTFYNQKFKGKATLTVDKSTSTAYMELSSLRSEDTAVYFCARSAYYFDSGGYFDYWGQGTLVTVSSASTKGPSVFPLAPSSKSTSGGTAALGCLVKDYFPEPVTVSWNSGALTSGVHTFPAVLQSSGLYSLSSVVTVPSSSLGTQTYICNVNHKPSNTKVDKRV[sequence of human IgG1 Fc omitted]", "light": "DIVMTQSPLSLPVTPGEPASISCRSSQSLVHSNKNTYLHWYLQKPGQSPQLLIYKVSNRFSGVPDRFSGSGSGTDFTLKISRVEAEDVGVYYCSQSTHVPWTFGPGTKVEIKRTVAAPSVFIFPPSDEQLKSGTASVVCLLNNFYPREAKVQWKVDNALQSGNSQESVTEQDSKDSTYSLSSTLTLSKADYEKHKVYACEVTHQGLSSPVTKSFNRGEC", "modifications": "synthetic anti-human death receptor 5 (DR5, TRAIL-R2) monoclonal antibody hB273 heavy chain; synthetic anti-human death receptor 5 (DR5, TRAIL-R2) monoclonal antibody hB273 light chain"}}, "key": {"[1]": {"test_system": "Human ovarian carcinoma cell line A2780", "assay": "A2780 xenograft model", "format": "in vivo, nude mice", "conditions": "3 mgkg intravenous, Days 11, 18 and 25, FIG. 14"}, "[2]": {"test_system": "Human colorectal adenocarcinoma cell line HCT-116", "assay": "HCT 116 xenograft model", "format": "in vivo, nude mice", "conditions": "3 mgkg intravenous, Days 11, 18 and 25, FIG. 16"}, "[3]": {"test_system": "Human colorectal adenocarcinoma cell line LoVo", "assay": "LoVo xenograft model", "format": "in vivo, nude mice", "conditions": "3 mgkg intravenous, Days 10, 17 and 24, FIG. 18"}, "[4]": {"test_system": "all tumor cell lines used for this assay (A375, NCI-H2122, HCT 15, SK-OV-3, LoVo, A2780, A549, Caki-2, HCT 116, NCI-H1975, MDA-MB-231, U-87 MG)", "assay": "In vitro cytotoxic activity, CellTiter Glo cell viability, all 12 cell lines", "format": "cell-based", "conditions": "72 hr, with goat anti-human IgG Fc antibody, FIGS. 1-12"}, "[5]": {"test_system": "Human glioblastoma cell line U-87 MG", "assay": "U-87 MG xenograft model", "format": "in vivo, nude mice", "conditions": "3 mgkg intravenous, Days 7, 14 and 21, FIG. 23"}, "[6]": {"test_system": "Human lung adenocarcinoma cell line NCI-H1975", "assay": "NCI-H1975 xenograft model", "format": "in vivo, nude mice", "conditions": "3 mgkg intravenous, Days 13, 20 and 27, FIG. 20"}, "[7]": {"test_system": "Human lung carcinoma cell line NCI-H1299", "assay": "NCI-H1299 xenograft model", "format": "in vivo, nude mice", "conditions": "3 mgkg intravenous, Days 14, 21 and 28, FIG. 19"}, "[8]": {"test_system": "Human ovarian adenocarcinoma cell line SK-OV-3", "assay": "SK-OV-3 xenograft model", "format": "in vivo, nude mice", "conditions": "3 mgkg intravenous, Days 14, 21 and 28, FIG. 22"}, "[9]": {"test_system": "Human lung adenocarcinoma cell line NCI-H2122", "assay": "NCI-H2122 xenograft model", "format": "in vivo, nude mice", "conditions": "1 mgkg intravenous, Days 15, 22 and 29, FIG. 21"}, "[10]": {"test_system": "Human renal cell carcinoma cell line Caki-2", "assay": "Caki-2 xenograft model", "format": "in vivo", "conditions": "3 mgkg intravenous, Days 18, 25 and 32, male nude mice, FIG. 15"}}}
{"molecule": "B1", "values": [{"measurement": "anti-tumor efficacy compared with hTRA-8-mcMMAF", "setting": "[1]", "result": "more potent anti-tumor efficacy than hTRA-8-mcMMAF"}, {"measurement": "anti-tumor efficacy compared with hTRA-8-mcMMAF", "setting": "[2]", "result": "more potent anti-tumor efficacy than hTRA-8-mcMMAF"}, {"measurement": "anti-tumor efficacy compared with hTRA-8-mcMMAF", "setting": "[3]", "result": "more potent anti-tumor efficacy than hTRA-8-mcMMAF"}, {"measurement": "cytotoxic activity compared with hTRA-8-mcMMAF", "setting": "[4]", "result": "more potent cytotoxic activity than hTRA-8-mcMMAF"}, {"measurement": "anti-tumor efficacy compared with hTRA-8-mcMMAF", "setting": "[5]", "result": "more potent anti-tumor efficacy than hTRA-8-mcMMAF"}, {"measurement": "anti-tumor efficacy compared with hTRA-8-mcMMAF", "setting": "[6]", "result": "more potent anti-tumor efficacy than hTRA-8-mcMMAF"}, {"measurement": "anti-tumor efficacy compared with hTRA-8-mcMMAF", "setting": "[7]", "result": "more potent anti-tumor efficacy than hTRA-8-mcMMAF"}, {"measurement": "anti-tumor efficacy compared with hTRA-8-mcMMAF", "setting": "[8]", "result": "more potent anti-tumor efficacy than hTRA-8-mcMMAF"}, {"measurement": "anti-tumor efficacy compared with hTRA-8-mcMMAF", "setting": "[9]", "result": "more potent anti-tumor efficacy than hTRA-8-mcMMAF"}, {"measurement": "anti-tumor activities", "setting": "[10]", "result": "none of the antibodies (hB273, hB273-vcMMAE, hB273-mcMMAF and hTRA-8-mcMMAF) showed any anti-tumor activities"}]}
{"molecule": "B2", "values": [{"measurement": "anti-tumor activities", "setting": "[10]", "result": "none of the antibodies (hB273, hB273-vcMMAE, hB273-mcMMAF and hTRA-8-mcMMAF) showed any anti-tumor activities"}]}
